Measurements published in PMC4336329 (PLoS ONE, 2015).
In all, about 310,000 compounds went through this assay and about 14,000 (4.5%) showed an effect of 50% or more. Effects have a minus sign here. The list shows a part of the results.

Target: human ether-à-go-go-related gene (hERG) potassium channel (human, UniProt Q12809)
Experiment: primary screen, population patch clamp on CHO cells stably expressing hERG
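Note: peak tail current of the secondary pulse compared with the same well before compound.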

Sequence of human ether-à-go-go-related gene (hERG) potassium channel (Q12809 whole entry, looked up): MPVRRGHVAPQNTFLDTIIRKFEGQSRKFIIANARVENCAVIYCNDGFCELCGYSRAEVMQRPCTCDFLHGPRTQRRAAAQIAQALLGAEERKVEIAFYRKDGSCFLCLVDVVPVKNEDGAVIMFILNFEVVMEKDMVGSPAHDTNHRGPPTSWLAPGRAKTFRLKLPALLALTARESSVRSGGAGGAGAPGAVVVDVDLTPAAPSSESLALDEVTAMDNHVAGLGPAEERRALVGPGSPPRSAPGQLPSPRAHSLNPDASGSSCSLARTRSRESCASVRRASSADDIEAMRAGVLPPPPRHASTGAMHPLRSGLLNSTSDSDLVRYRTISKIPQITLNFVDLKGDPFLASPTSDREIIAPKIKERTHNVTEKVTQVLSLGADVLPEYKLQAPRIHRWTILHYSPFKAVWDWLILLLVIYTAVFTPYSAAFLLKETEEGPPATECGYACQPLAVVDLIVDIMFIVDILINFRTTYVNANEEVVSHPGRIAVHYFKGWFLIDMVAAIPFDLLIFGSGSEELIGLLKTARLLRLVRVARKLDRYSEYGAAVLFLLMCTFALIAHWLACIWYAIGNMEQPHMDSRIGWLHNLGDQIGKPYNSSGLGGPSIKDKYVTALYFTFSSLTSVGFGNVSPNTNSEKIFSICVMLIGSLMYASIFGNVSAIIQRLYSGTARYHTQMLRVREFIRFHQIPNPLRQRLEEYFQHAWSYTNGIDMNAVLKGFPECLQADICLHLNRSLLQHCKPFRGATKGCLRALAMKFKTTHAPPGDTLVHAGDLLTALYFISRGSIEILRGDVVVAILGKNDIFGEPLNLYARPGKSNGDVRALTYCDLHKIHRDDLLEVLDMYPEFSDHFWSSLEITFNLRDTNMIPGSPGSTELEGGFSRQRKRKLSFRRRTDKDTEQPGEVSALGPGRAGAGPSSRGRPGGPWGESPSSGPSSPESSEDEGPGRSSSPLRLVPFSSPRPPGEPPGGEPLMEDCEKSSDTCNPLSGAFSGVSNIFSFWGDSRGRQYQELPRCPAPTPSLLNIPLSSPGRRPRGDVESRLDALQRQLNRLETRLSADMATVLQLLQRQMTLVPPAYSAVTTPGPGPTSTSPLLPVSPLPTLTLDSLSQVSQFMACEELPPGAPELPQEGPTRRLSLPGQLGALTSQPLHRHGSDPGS

Row | Compound | hERG current change (%, negative = inhibition) at 10uM
1 | Cc1cc(C(=O)NNC(=O)Nc2cccc(C(F)(F)F)c2)no1 | 14.4%
2 | NC(=O)COC(=O)c1c2c(nc3ccccc13)CCCCC2 | -23.2%
3 | N#Cc1nc(-c2ccc(F)cc2)oc1N1CCCC1 | -1.49%
4 | Cc1cc(NC(=O)COC(=O)C2CCN(S(=O)(=O)c3cccc(Cl)c3Cl)CC2)no1 | -1.85%
5 | Cc1nc(SCc2ccc(O)c([N+](=O)[O-])c2)c([N+](=O)[O-])[nH]1 | -2.21%
6 | Cc1cccc(C)c1NC(=O)C1C2C=CC(C2)C1C(=O)O (stereo not shown) | 9.48%
7 | COc1ccccc1-c1nnc(NC(=O)c2ccc(S(=O)(=O)N(C)Cc3ccccc3)cc2)o1 | -0.307%
8 | COc1ccc(/C(C)=N/Nc2nc3ccccc3nc2C)cc1 | -10.8%
9 | COc1ccc(NC(=O)C(c2ccc(C)cc2)N(C)C(=O)c2cnccn2)cc1 (stereo not shown) | -35.2%
10 | COCC(=O)Nc1ccc(N2CCN(c3ccccc3)CC2)c(F)c1 | 22.6%
11 | O=C(Nn1cnnc1)c1cc2c(s1)CCCC2 | 0.59%
12 | Cc1ccc(CN2CCN(/N=C/c3ccco3)CC2)c(C)c1 | -18.8%
13 | CC(=O)N1N=C(c2ccc(Br)cc2)CC1c1cn(C)c2ccccc12 (stereo not shown) | 6.91%
14 | O=C(c1ccncc1)N1CCN(S(=O)(=O)c2cccc(C(F)(F)F)c2)CC1 | -31.4%
15 | Cc1ccc(CNC(=O)CSCc2ccc(F)cc2)cc1 | -5.13%
16 | Fc1ccc(CN2CC[C@H]3C=CCc4cccc(c43)C2)cc1 | -30.2%
17 | Cc1nc(C)c(C(=O)Nc2ccc(Oc3ccccc3)cc2)o1 | -26.3%
18 | CC(C)c1nnc(NC(=O)CCC(=O)NC2CC2)s1 | 20.2%
19 | CN(CC(=O)Nc1cccc(F)c1)C(=O)CCC1CCCCC1 | 17.7%
20 | Cn1c(=O)n(C)c2cc(/C=N/NC(=O)c3ccc(Cl)cc3Cl)ccc21 | -12.5%
21 | COc1ccc(/C=C(/NC(=O)c2ccc(OC)c(OC)c2)C(=O)NCCc2c[nH]c3ccccc23)cc1 | -46.4%
22 | COc1cccc2c1C(=O)c1c(O)c3c(c(O)c1C2=O)C[C@@](O)(C(=O)CO)C[C@@H]3O[C@H]1C[C@H](N)[C@H](O)[C@H](C)O1.Cl | 6.68%

Row | Compound | hERG current change (%, negative = inhibition) at 10uM
23 | Cc1ccc(C)c(N2CCN(C(=O)c3ccc4c(=O)n5c(nc4c3)CCCCC5)CC2)c1 | -40.2%
24 | COc1ccc(CC(=O)Nc2cccc(Cl)c2C)cc1S(=O)(=O)N1CCOCC1 | -14.9%
25 | CN(C)c1ncc(S(=O)(=O)c2ccccc2)c(-c2ccc(Cl)cc2Cl)n1 | -8.47%
26 | COc1ccc(N2C(=O)CC2(C#N)c2ccc(OCc3ccccc3)cc2)cc1 (stereo not shown) | 8.21%
27 | CN(C)CCCCOc1ccccc1F.O=C(O)C(=O)O | 14.4%
28 | CC(Cc1ccccc1)NCc1ccccc1O.Cl (stereo not shown) | 4.58%
29 | Cc1ccc(C(C)NC(=O)CSc2ccc(S(=O)(=O)N3CCOCC3)cn2)cc1C (stereo not shown) | -0.177%
30 | Cc1nn(C)cc1/C=N/NC(=S)Nc1ccccc1 | -12.5%
31 | CCOc1ccc(NC(=O)CCc2c(C)noc2C)cc1OC | -5.38%
32 | Cl.Nc1ccc2nc(Cc3ccccc3)[nH]c2c1 | 13.9%
33 | Cc1ccc(C)c(-n2cc(CN3CCCN(C=O)CC3)c(-c3ccccc3)n2)c1 | -31.9%
34 | CC(=O)Nc1ccc(S(=O)(=O)N(C)CCOCc2ccccc2)cc1 | 1.04%
35 | Cc1ccc(O)c(NC(=O)c2cccc(S(=O)(=O)N3CCCCC3)c2)c1 | -42.1%
36 | CC(=O)[C@@H]1[C@@H](C)N(Cc2ccccc2)C(=O)N[C@H]1c1cccc(C(F)(F)F)c1 | 5.55%
37 | COCCn1c(SCc2nc3scc(-c4ccc(Cl)cc4)c3c(=O)[nH]2)nnc1-c1cccc(C)c1 | -17.8%
38 | O=C(Nc1ccccc1Oc1ccccc1)c1cccc([N+](=O)[O-])c1 | -31.4%
39 | COc1ccc(C(=O)N/N=C(\C)CC(=O)Nc2ccc3c(c2)OCCO3)c(OC)c1 | 12.6%
40 | COc1ccc(N(C(=O)c2snc(C(N)=O)c2N)C(C(=O)NC2CCCC2)c2ccc(OC)c(OC)c2)cc1 (stereo not shown) | 10.9%
41 | O=C(CN1CCOCC1)Nc1ccccc1-c1ccccc1 | 4.15%
42 | Cc1nn(Cc2ccc(F)cc2)c(Cl)c1/C=N/NC(=O)c1cccnc1 | -33.5%
43 | Cc1nc2ccccc2n1C1CCN(C(=O)Nc2ccccc2)CC1 | -60.5%
44 | Cc1cc(S(=O)(=O)NCC(=O)O)ccc1F | -27.1%

Row | Compound | hERG current change (%, negative = inhibition) at 10uM
45 | Cc1ccc(N2CC(C(=O)N3CCC4(CC3)CC(=O)c3ccccc3O4)CC2=O)cc1 (stereo not shown) | -71.6%
46 | COc1ccc(NC(=O)[C@@H](NC(=O)N2C[C@H]3C[C@@H](C2)c2cccc(=O)n2C3)C(C)C)cc1OC | 21.1%
47 | Clc1ccc(Sc2cnc3ccccc3n2)cc1 | 5.72%
48 | Cc1ccc(S(=O)(=O)NCc2ccccc2)cc1C(=O)N1CCCC(C(F)(F)F)C1 (stereo not shown) | -38%
49 | CCn1nnc(-c2ccccc2NS(=O)(=O)c2ccc(S(=O)(=O)N3CCCCCC3)cc2)n1 | -0.0422%
50 | COc1ccc(CN(Cc2ccc(C(=O)O)cc2)C(=S)Nc2cc(C)cc(C)c2)cc1OC | 7.52%
51 | O=C(COc1ccc(S(=O)(=O)N2CCOCC2)cc1)Nc1ccccc1F | 1.54%
52 | Cc1ccc(NC(=O)c2cc(-c3ccccc3)n[nH]2)cc1 | 18.3%
53 | CC(=O)Nc1ccc(S(=O)(=O)NCCNS(=O)(=O)c2ccc(NC(C)=O)cc2)cc1 | 26.8%
54 | CCOC(=O)N1CCN(C(=O)CN(C)S(=O)(=O)c2ccc(Cl)cc2)CC1 | 8.13%
55 | O=C(N/N=C\c1cc(Cl)ccc1O)c1ccc(S(=O)(=O)N2CCCCC2)cc1 | -2%
56 | CCOC(=O)c1c(C)[nH]c(C)c1S(=O)(=O)NCc1cc(C)ccc1C | -6.49%
57 | COc1cc(Cl)c(C)cc1NC(=O)COC(=O)c1cc(SC)ccc1Cl | 8.99%
58 | CC1CC/C(=N/Nc2ccccc2)C(=O)N1 (stereo not shown) | -2.54%
59 | CCOc1ccc(N(CC(=O)O)S(=O)(=O)c2ccc(F)cc2)cc1 | -13%
60 | COCCN(CC1CCCN(C2Cc3ccccc3C2)C1)C(=O)CCC(N)=O (stereo not shown) | -75.1%
61 | O=C(O)CCNC(=O)c1cncc(Br)c1 | 3.16%
62 | Cn1c(=O)c2c(nc(SCC(=O)c3cccs3)n2Cc2ccc(F)cc2)n(C)c1=O | -13.2%
63 | O=c1[nH]c(SCc2cccc(F)c2)nc2ccccc12 | 5.94%
64 | OCC1CCN(Cc2cn(Cc3ccccc3)nc2-c2cc3ccccc3o2)CC1 | -67%
65 | Cc1nn(-c2ccccc2)c(C)c1C(=O)OCC(=O)c1c(N)n(CC(C)C)c(=O)n(C)c1=O | 9.06%
66 | CC1=C(C(=O)Nc2ccccc2)C(c2cccnc2)n2nc(-c3cccnc3)nc2N1 (stereo not shown) | -5.97%

Row | Compound | hERG current change (%, negative = inhibition) at 10uM
67 | Cc1ccc(S(=O)(=O)NNC(=O)CCCCC(=O)NNS(=O)(=O)c2ccc(C)cc2)cc1 | 1.4%
68 | CC(NC(=O)c1ccccc1)C(=O)N/N=C/c1ccccc1 (stereo not shown) | 14.4%
69 | COc1c([N+](=O)[O-])c(=O)n(-c2ccccc2)c2ccccc12 | 5.17%
70 | Cc1cc(-c2ccccc2)nc(N(C)NC(=O)C2CC2)c1S(C)(=O)=O | 11.6%
71 | O=C(CSC(=S)N1CCCCC1)c1c(F)cccc1F | 34.3%
72 | Br.CC(=O)c1sc(N/N=C2\CC3CC2C(C)C3(C)C)nc1C (stereo not shown) | -24.8%
73 | CCCNC(=O)NC(=O)COc1ccc2oc3ccccc3c2c1 | 12.3%
74 | CCOC(=O)N1CCN(C(=O)CNC(=O)c2nn(-c3ccc(OC)c(Cl)c3)c(=O)c3ccccc23)CC1 | -20.7%
75 | N#Cc1ccc(COC(=O)c2ccc3c(=O)[nH]c(CN4CCOCC4)nc3c2)cc1 | -34.1%
76 | Cc1ccc(S(=O)(=O)Nc2cccc3c2CCCC3)cc1 | 4.63%
77 | Cn1c(=O)c2c(nc(OCc3ccccc3)n2C)n(C)c1=O | 4.72%
78 | CCOC(=O)Cc1cc(=O)n2[nH]c(C)c(-c3ccc(OC)cc3)c2n1 | -17.9%
79 | CCOC(=O)N1CCN(Cc2nc3cc(NC(=O)C(C)C)ccc3n2CC)CC1 | 14.3%
80 | O=C1CSC(=Nc2ccccc2[N+](=O)[O-])N1 | 1.79%
81 | CCOc1ccccc1NCc1nnc(-c2ccccc2)o1 | 5.02%
82 | Cc1ccccc1-c1nc(-c2ccccn2)no1 | -3.82%
83 | COc1cc2c(cc1OC)C(c1ccc(Br)cc1)N(C(=O)c1ccccc1C(=O)O)CC2 (stereo not shown) | 9.72%
84 | O=C(COc1ccccc1Cl)N1CCN(C(=O)c2ccco2)CC1 | -10.8%
85 | COc1ccc(N(C)S(=O)(=O)c2ccc3c(c2)oc(=O)n3C)cc1 | 2.38%
